# Results reported in PMC4336329 (PLoS ONE, 2015).
# The whole screen tested about 310,000 compounds, of which about 2,200 (0.71%) showed an effect of 50% or more. Effects have a minus sign here. Some of the results follow.
# Biological target: human ether-à-go-go-related gene (hERG) potassium channel (human, UniProt Q12809)
# Assay: primary screen, population patch clamp on CHO cells stably expressing hERG
# Chain of human ether-à-go-go-related gene (hERG) potassium channel (Q12809 whole entry, looked up): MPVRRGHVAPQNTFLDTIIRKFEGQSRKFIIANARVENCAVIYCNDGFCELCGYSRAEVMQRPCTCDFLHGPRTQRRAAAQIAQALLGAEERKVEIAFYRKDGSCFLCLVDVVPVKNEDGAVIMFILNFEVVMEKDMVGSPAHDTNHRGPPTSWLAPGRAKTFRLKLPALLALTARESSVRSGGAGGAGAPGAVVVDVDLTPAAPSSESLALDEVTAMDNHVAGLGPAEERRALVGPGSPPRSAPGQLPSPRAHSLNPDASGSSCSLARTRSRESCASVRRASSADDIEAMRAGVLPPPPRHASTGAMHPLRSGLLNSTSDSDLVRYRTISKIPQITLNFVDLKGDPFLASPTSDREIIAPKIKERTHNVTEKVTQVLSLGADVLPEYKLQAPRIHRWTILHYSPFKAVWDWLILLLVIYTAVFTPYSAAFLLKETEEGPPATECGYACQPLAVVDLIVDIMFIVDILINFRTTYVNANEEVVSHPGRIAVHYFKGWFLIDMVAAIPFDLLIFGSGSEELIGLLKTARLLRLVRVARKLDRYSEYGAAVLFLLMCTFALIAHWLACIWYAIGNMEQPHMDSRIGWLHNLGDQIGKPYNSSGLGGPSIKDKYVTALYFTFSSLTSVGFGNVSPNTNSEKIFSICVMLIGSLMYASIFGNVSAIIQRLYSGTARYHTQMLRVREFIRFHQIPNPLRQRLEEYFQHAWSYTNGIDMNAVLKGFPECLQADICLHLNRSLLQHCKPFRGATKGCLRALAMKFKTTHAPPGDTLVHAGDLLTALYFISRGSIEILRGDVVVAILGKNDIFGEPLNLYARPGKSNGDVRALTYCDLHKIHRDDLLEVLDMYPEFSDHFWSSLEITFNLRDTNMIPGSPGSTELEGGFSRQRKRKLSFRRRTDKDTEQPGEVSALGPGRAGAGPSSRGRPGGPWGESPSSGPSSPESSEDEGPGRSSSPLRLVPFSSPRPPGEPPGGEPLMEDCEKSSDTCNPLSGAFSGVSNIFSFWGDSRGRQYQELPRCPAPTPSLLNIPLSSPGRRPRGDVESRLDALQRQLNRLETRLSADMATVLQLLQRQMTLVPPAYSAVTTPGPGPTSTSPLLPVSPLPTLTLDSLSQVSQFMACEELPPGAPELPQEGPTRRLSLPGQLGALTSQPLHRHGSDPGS
row,Compound,"hERG current change (%, negative = inhibition) at 1uM"
1,O=c1[nH]c2ccccc2cc1-c1nnn(-c2ccc(F)cc2)n1,-2.21%
2,O=C(NC(=S)N1CCN(c2ccc([N+](=O)[O-])cc2)CC1)c1ccccc1,6.36%
3,CCOc1ccccc1NC(=O)c1cccc(NC(=O)CC(c2ccccc2)c2ccccc2)c1,-16.5%
4,Cn1c(C(=O)O)c(C=O)c2ccccc21,23.4%
5,CCC(=O)NNc1nc2c(F)cccc2s1,11.9%
6,Cc1ccc(NC(=O)COC(=O)C2=COCCO2)cc1,10.1%
7,CCCCn1c(N)c(N(CC)C(=O)CSCc2ccc(C)cc2)c(=O)[nH]c1=O,6.96%
8,Cc1ccc(S(=O)(=O)N2CCC(C(=O)NCC3CCCO3)CC2)cc1 (centres unmarked),13.2%
9,CC(=O)Nc1ccc(S(=O)(=O)Nc2cccc(-c3nc4ccccc4o3)c2)cc1,7.6%
10,Cc1ccc(SCc2cn3cccnc3n2)cc1,12.6%
11,CCc1ccc(C(=O)COC(=O)c2cc([N+](=O)[O-])ccc2N2CCOCC2)cc1,1.66%
12,CC1CN(C2=Nc3cccc4cccc2c34)CC(C)O1 (centres unmarked),1.35%
13,Cc1cc(=O)oc2c3c(cc(OCC(=O)NCCCn4ccnc4)c12)OC(C)(C)CC3,-7.59%
14,COC(=O)c1sccc1NC(=O)c1cccc(F)c1,24%
15,CCOC(=O)c1ccc(N2C(=O)C(O)=C(C(C)=O)C2c2ccccn2)cc1 (centres unmarked),4.5%
16,NC(=Nc1ccc(N)cc1)C(N)=Nc1ccc(N)cc1,10.8%
17,Cc1nc(C)n(C(C)CNC(=O)c2cccc(Br)c2)n1 (centres unmarked),12.9%
18,O=C(NCC(O)COc1ccc([N+](=O)[O-])cc1)Nc1ccccc1 (centres unmarked),-8.26%
19,Cc1cc(C)cc(C(=O)NCC(=O)N(C)CCOc2ccccc2)c1,17.5%

row,Compound,"hERG current change (%, negative = inhibition) at 1uM"
1,C=C1C2C[C@H](O)C(C)(C)[C@@]2(O)[C@H](O)C[C@]23C[C@@](C)(O)[C@H](CC[C@H]12)[C@H]3OC(C)=O (some centres unmarked),18.8%
2,CCN(c1ccc(OC)cc1)S(=O)(=O)c1nnc(NC(=O)c2ccco2)s1,15.3%
3,CS(=O)(=O)N(CC(=O)N1CCN(c2ccccc2)CC1)c1ccccc1Cl,11.6%
4,CC(=O)NC1CC2CCCC(C1)N2C(=O)Nc1ccc(Cl)c(C(F)(F)F)c1 (centres unmarked),7.96%
5,CCOC(=O)C(C)Oc1ccc2c(-c3cccc([N+](=O)[O-])c3)cc(=O)oc2c1 (centres unmarked),-35.6%
6,COc1cc(OC)c(C(=O)OCC(=O)N2CCOCC2)cc1OC,11%
7,O=C(CN1CCN(c2ccc(F)cc2)CC1)Nc1ccccc1,10.9%
8,COCCCNC(=O)CCC(=O)NNc1nc2ccccc2c2nc(-c3ccccc3)nn12,-15.2%
9,CN(CC(=O)Nc1cccc(F)c1)C(=O)c1ccccc1OCC(=O)Nc1cccc(C(F)(F)F)c1,13.6%
10,O=C(NCc1ccccc1)C(c1cccs1)N(C(=O)c1csnn1)C1CC1 (centres unmarked),-3.21%
11,CCC(C(=O)OCC(=O)N1C(C)CCCC1C)c1ccccc1 (centres unmarked),3.49%
12,CCC(CC)C(=O)Nc1cccc(C(=O)c2ccccc2)c1,4.34%
13,CCCCc1c(O)nc(SCC(=O)Nc2cccc3ccccc23)n(-c2ccccc2OC)c1=O,15.8%
14,CC(C)CC(NC(=O)C1CCC(C)CC1)C(=O)Nc1ccccc1F (centres unmarked),9.91%
15,C=CCOc1ccc(Br)cc1/C=N/O,12.4%
16,Cc1cccn2c(=O)c3cc(C(=O)NC(C)C)c(=N)n(Cc4ccncc4)c3nc12,-67.2%
17,COc1ccc(C2=NS(=O)(=O)N(C)C(C(=O)NCc3ccc4c(c3)OCO4)=C2)cc1OC,-14.3%
18,O=C(CCC(=O)N1CC2C[C@@H](C1)Cn1c2cccc1=O)NCCc1ccccc1,-4.99%
19,CCCCn1c(=N)n(CC(O)COc2ccccc2)c2ccccc21 (centres unmarked),-68%

row,Compound,"hERG current change (%, negative = inhibition) at 1uM"
1,COc1cccc(NC(=O)COC(=O)c2ccccc2SCC(=O)N2CCCC2)c1,23.2%
2,Cc1cc(=O)n2[nH]c(-c3ccccc3Cl)cc2n1,11.3%
3,O=Cc1nc(-c2ccc(Cl)cc2)n2ccccc12,-2.33%
4,O=C(NCc1ccccc1)C1CCCN(S(=O)(=O)c2cccc3nonc23)C1 (centres unmarked),6.52%
5,O=C(CCC1CCCN(C(=O)c2ccncc2)C1)NCc1ccc(F)c(F)c1 (centres unmarked),2.09%
6,O=C(NCc1ccccc1)c1cccc(COc2ccccc2Cl)c1,17.7%
7,COc1cccc(NC(=O)c2oc3ccccc3c2NC(=O)c2ccc3c(c2)OCO3)c1,-0.218%
8,Cn1ncc(Br)c1NC(=O)CSc1ccc(Cl)cc1,11.8%
9,Cc1ccc(OCc2cc(C(=O)N3CCC(c4ccccc4Cl)C3)no2)cc1C (centres unmarked),6.9%
10,O=S(=O)(c1cccc(S(=O)(=O)N2CCN(c3ncccn3)CC2)c1)N1CCOCC1,1.31%
11,Cc1c(Cl)cccc1-n1c(SCC(=O)N(C)Cc2ccccc2)nnc1-c1ccncc1,-16.2%
12,O=C(CN1CCCCC1)N/N=C/c1cccc(Cl)c1,-1.53%
13,Cc1ccc(C(=O)N(CC(=O)Nc2ccc(Cl)c(Cl)c2)Cc2ccco2)cc1,13.7%
14,O=C(COc1ccc([N+](=O)[O-])cc1)N1CCc2ccccc2C1,-15%
15,O=C(CN1C(=O)CSc2ncccc21)NCCN1CCOCC1,1.38%
16,COc1ccc(NC(=S)N2CCC(Cc3ccccc3)CC2)cc1,2.76%
17,Cn1ncc([N+](=O)[O-])c1C(=O)Nc1nccs1,14.2%
18,COc1ccccc1NC(=S)Nc1cccc2cnccc12,3.4%
